Measurements reported in ChEMBL document CHEMBL4888484, “Replenishing the malaria drug discovery pipeline: Screening and hit evaluation of the MMV Hit Generation Library 1 (HGL1) against asexual blood stage Plasmodium falciparum ,using a nano luciferase reporter read-out” (2022).
About 410 (8.5%) of roughly 4,800 compounds showed an effect of 50% or more. The list shows a part of the results.

tested on: Plasmodium falciparum; assay: Confirmatory screen in NF54 pLDH assay, in single point, at 2uM, 72h; assay type: functional, Erythrocyte; settings: timepoint 72 hour

SMILES	% Inhibition [%]
CC(C)n1[nH]c(=O)c2c1NC(=O)C[C@@H]2c1cccc2nccnc12	11
COc1ccc(C2(NCc3cc(O)cc(Cl)c3)CCOCC2)cc1	1
CCN(CC)c1ccc(C(=O)OCC(=O)NC(C)(C)C)cc1	-6
COc1ccc2nc(C)c(C(=O)N3CC(OCC(F)F)C3)n2n1	-7
Oc1c(Br)cc(Br)cc1/C=C/c1ccc(CN2CCOCC2)cc1	-4
N#CCC(=O)NC1CCC(CC2CCC(NC(=O)CC#N)CC2)CC1 (stereo not given)	-2
COc1cccc(N2C(=O)C[C@]3(CC3(c3ccccc3)c3ccccc3)C2=O)c1	1
Clc1cccc(CNc2cc(-c3ccco3)n[nH]2)c1	-3
O=C(c1cn[nH]c1-c1ccccc1)N1CCCCC1	-7
Oc1cccc(CN[C@H]2CCCc3occc32)c1Cl	83
COc1cc(OC)c(NC(=O)c2cnn3c4c(cnc23)CCCCCC4)cc1Cl	12
CCc1ccc(NC(=O)[C@H]2CCCN(c3nc4cccnc4n(Cc4ccccc4)c3=O)C2)cc1	-14
COc1cc(OC)cc(C(=O)Nc2cnc(N3CCCCC3)c(C)c2)c1	7
Cc1c(C)n(C[C@@H](O)CNC2CCCC2)c2c(Cl)cccc12	-18
CCC(C)C(NC(=O)c1ccccc1NC(=O)c1ccco1)C(=O)N1CCCCCC1 (stereo not given)	-6
COc1ccc(N[C@@H](C)C(=O)NC(=O)NC2CC2)c(OC)c1	4
O=C(NCc1ccc(S(=O)(=O)N2CCCC2)cc1)c1cc[nH]n1	0
COc1cccc(-c2cc3c(N4CCC5(CC4)OCCO5)nccn3n2)c1	3
CCCCN(C(=O)c1ccccc1)C(=O)c1ccccc1	2
Cc1ccc(COc2cccc(CNC3CC3)c2)cc1	-1
O=C(O)C1CC1C(=O)N1CCN(c2ccc(Cl)c(Cl)c2)CC1 (stereo not given)	5
CCOC1CC2(CCN(Cc3cc(Cl)c(OC)cc3Cl)C2)C1 (stereo not given)	13
CCCC1CCC(OC(=O)c2ccc(C(=O)OC3CCC(CCC)CC3)nc2)CC1 (stereo not given)	8
C[C@H]1CCCCN1CCNC(=O)c1cc2c(s1)N(C)CCCC2	-15
CC1(CN2CCOCC2)CCN(CC(=O)N2CCc3sccc3C2)CC1	9
OC[C@H]1CCc2nnc(C(F)F)n2C1	11
Cc1cc(C)c(S(=O)(=O)N2CCC(C)(C(=O)NCc3ccc4c(c3)OCO4)CC2)cc1C	9

SMILES	% Inhibition [%]
Cc1cc(C)cc(-c2cc3nc(C)cc(N4CCC(C(=O)NCc5cccc(F)c5)CC4)n3n2)c1	67
O=c1[nH]c2nc(N3CCN(c4ncccn4)CC3)ncc2c(=O)n1Cc1ccco1	-12
Cc1cc(C#N)cc(C)c1Oc1nc(Nc2ccc(C#N)cc2Br)nc(N)c1Br	-4
COc1ccc([C@@]2(C)NC(=O)N(CC(=O)N3CC(=O)Nc4ccccc43)C2=O)cc1OC	13
CCCOc1ccc(Nc2cc(C)nc3ccc(Cl)cc23)cc1	63
CN1CN(C(=O)c2cc(C#N)cn2C)CC1=O	-7
CC[C@H](C)NC(=O)c1cn(-c2cccc(C)n2)cn1	13
CC(C)(C)C(=O)NCCNC(=O)c1ccccn1	13
Cc1c(N2CCC(C(=O)NCCN3CCOCC3)CC2)c(=O)n(CC(C)C)c(=O)n1-c1ccccc1	6
COC(=O)[C@@H](NC(=O)NC1CCCCC1)C(C)(C)C	8
O=C(CN1CCCC1)Nc1ccc(N2CCn3c(nc4ccccc43)C2)cc1	12
CCOc1ccc(NC(=O)Cn2cnc3c(-c4cccc(OC)c4)cn(C)c3c2=O)cc1	10
CCCn1ccnc1-c1cn(Cc2cc3ccccc3[nH]2)nn1	54
CCOc1ccc(-c2ccnc3c(C(=O)NCCc4c[nH]c5ccc(OC)cc45)cnn23)cc1	-9
CC(=O)Nc1cccc(C#CCN2CCN(c3ccc(F)cc3)CC2)c1	13
COc1ccccc1N1CCN(C(=O)c2nnn(-c3ccccc3Cl)c2-c2cccnc2)CC1	1
Cc1ccnc(CNC(=O)N[C@H]2CCc3ccc(F)cc32)c1	-12
CCn1nc(C)c(CNc2nnc(C3CCCCC3)o2)c1C	-24
Cc1ccc(CN2CCN(CC(=O)NC3CCCCC3C)C2=O)cc1 (stereo not given)	-5
CC(C)Cn1c(C(F)(F)F)cnc1N	13
O=C(COC[C@H]1CCCO1)Nc1ccc2[nH]c(=O)sc2c1	3
CCC[C@H](C)CS(=O)(=O)NCc1ccnc(OC(C)C)c1	-10
O=C(O[C@@H](c1ccccc1)N1C(=O)C(C(F)(F)F)(C(F)(F)F)c2ccccc21)C(C(F)(F)F)C(F)(F)F	12
COC(OC)c1ccnc2c(C#N)cnn12	-13
COc1cc(C)cc(C)c1S(=O)(=O)N(C)Cc1nnc[nH]1	4
Cc1c(NC(=O)c2n[nH]cc2Cl)c(=O)n(-c2ccccc2)n1C	-18
CCOc1ccc(NC(=O)c2cnc(N(Cc3ccccc3)C(C)C)nc2N)cc1	-12

SMILES	% Inhibition [%]
C[C@H](NC(=O)c1nnn(C)c1C(F)(F)F)c1cscn1	13
CCCc1ccc(Cl)c(S(=O)(=O)Nc2nnc(C3CC3)o2)c1	5
Cc1ccc(N2CCN(c3c(C(=O)N4CCCCC4)cnc4ccc(F)cc34)CC2)cc1	-26
CCO[C@H]1OCCn2c1c(Br)c(=O)n(C)c2=O	-2
Cc1c(-c2nn3c(Cc4ccc(Cl)cc4)nnc3s2)cnn1-c1ccccc1	-12
Cc1ccc(S(=O)(=O)Nc2c(-n3cnnc3)nn(C)c2C)c(C)c1	-1
c1ccc2[nH]c(Nc3nc4ccccc4s3)nc2c1	14
Cc1cccc(CN(C(=O)C2CCCC2)c2ccc(CC(=O)NCCN3CCOCC3)cc2)c1	7
C#CCCCCC(=O)Nc1ncccc1Cl	9
CCCNC(=O)c1sccc1NC(=O)c1cnccn1	13
C[C@H]1C(=O)N(C)C[C@@H](CNS(=O)(=O)c2ccccc2)N1Cc1cccnc1	9
CC(C)[C@H](CNc1ncnc2ccsc12)N1CCN(C)CC1	7
CC(C)(C)C1CC(NC(=O)C2CC=CC2)CCO1 (stereo not given)	-1
O=C(CN1CCN(Cc2ccc(F)cc2)C1=O)N1CCN(c2ccccc2)CC1	0
COc1cc(Br)ccc1C1NC(=O)C2COCCN21 (stereo not given)	3
CN(C)Cc1ccc(O)c(CCc2ccccc2)n1	25
O=C(Nc1ccsc1C(=O)N1CCCCC1)c1cnccn1	11
CC(CO)(CO)NCc1ccc(F)cc1F	1
FC(F)(F)c1cccc([C@@H]2CNC3(CCCC3)CO2)c1	-22
CCC[C@H](NC(=O)c1ccc(Cl)o1)c1nnn[nH]1	8
O=C1c2ccccc2C(=O)N1CCc1csc(Cn2cncn2)n1	10
Nc1nc(Cc2ccccc2)c(Br)c(=O)[nH]1	5
O=c1[nH]c2nc(N3CCN(c4ccccn4)CC3)ncc2c(=O)n1-c1ccc(F)cc1	2
Cc1ccc(C(=O)Nc2ccc3c(c2)OC(C)(C)C(=O)N3)cc1	-3
COc1ccc(NC(=O)CN2N=C(C(=O)Nc3ccc(F)cc3)CCC2=O)cc1	-1
Cc1nn(-c2ncc(C(F)(F)F)cc2Cl)c(=O)n1-c1cccc(F)c1	7
Cc1nc2ccccc2n1C(=O)c1sc2ccccc2c1Cl	4

SMILES	% Inhibition [%]
Cc1cccc(NC(=O)[C@@H](C#N)C(=O)C2CCC2)c1	8
O=C(CN1CCN(Cc2cccc(Cl)c2)C1=O)N1CCN(c2ccccc2)CC1	4
CC1(C)C2Cc3nc4c(cc3C1C2)CCC4 (stereo not given)	0
Cn1nc(N)c2cc(C(F)(F)F)ccc21	10
O=C(Nc1ccccc1)c1ccc2c(c1)C(=O)N(CCc1ccccc1)C2=O	-15
CCc1ccc(C2=Nc3cccnc3N(CC(=O)Nc3c(C)cc(C)cc3C)C(=O)C2)cc1	2
CC1CCC(NC(=O)C(c2ccccc2)c2ccccc2)CC1 (stereo not given)	8
Cc1cc(C)cc(-c2cc3nc(C)cc(N4CCC(C(=O)Nc5ccc(C)c(Cl)c5)CC4)n3n2)c1	-12
O=C(O)c1cc2ccoc2n1Cc1ccccc1	7
Cc1ccc(NC(=O)Cn2c(=O)n(Cc3ccco3)c(=O)c3ccccc32)c(C)c1	-13
COc1cccc(-c2cc3c(N4CC=C(c5ccccc5)CC4)nccn3n2)c1	10
O=C(CCc1nc2ccccc2[nH]1)N1CCN(c2ccccn2)CC1	3
CCc1sc(N(C(=O)Cc2ccccc2)c2ccc(C)cc2C)nc1-c1ccc(Cl)cc1	12
O=C(NC1CCCC1)N1CCN(c2nc3cccnc3n(Cc3ccccc3)c2=O)CC1	8
CC1(C)CCCc2sc(NC(=O)N[C@H]3CCOC4(CCC4)C3)nc21	1
Cc1cccc([C@H]2NCCc3sccc32)n1	10
Cc1cc(C(=O)Nc2cc(C)nn2C)nc(N(C)C)n1	8
Cc1c(C)n(CC(O)CNC(C)c2ccccc2)c2c(Cl)cccc12 (stereo not given)	73
C[C@@H](CC(=O)Nc1cncnc1-n1cccn1)c1ccccc1	10
CN(C)c1ccc(-c2nc(C(F)(F)F)cc(C(F)(F)C(F)(F)F)n2)cc1	5
COc1ccc(C(=O)N2CCN(c3cc(N4CCOCC4)nc(C)n3)CC2)cc1	4
CC(C)N1CCN(C(=O)CN2N=C(c3nc(-c4ccccc4)no3)CCC2=O)CC1	2
CCN1C(=O)CCN(C(=O)c2ccnn2C)CC12CCOCC2	3
COCc1cc(C(=O)N[C@H](c2ccccc2)C2CCOCC2)no1	8
